{
  "source": "the supplement of paper PMC11417369",
  "note": "± gives the standard deviation of the averaged measurements. Some of the results follow.",
  "data": [
    {"system": "PfAP2-G AP2 domain (GST-tagged)", "assay": "gcPBM binding intensity (ln(normalized median fluorescence intensity)); higher = stronger DNA binding", "summary_of_the_method": "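GST-tagged P. falciparum DNA-binding domains produced in E. coli were incubated for 1 h on an Agilent 4 × 180k array of primer-extended double-stranded 36-bp intergenic genomic probes with negative controls. Binding intensity is the highest Masliner-normalised natural-log median intensity across replicate spots of either probe orientation, with bound protein detected by Alexa488 anti-GST antibody at 488 nm.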", "values": [
      {"sequence": "CATAATGTAAATAAGTGTACACATATATAATACATA [XGTACX_site3108]", "gcPBM binding intensity (ln)": "11.6 ± 0.9"},
      {"sequence": "ATATTTTGATAATATTGTACAAAAACATTAAAATGT [XGTACX_site8361]", "gcPBM binding intensity (ln)": "10.8 ± 0.44"},
      {"sequence": "GATCATTCAGTTTTATCACACACAATCAAACATATA [CACACA_site8882]", "gcPBM binding intensity (ln)": "10.2 ± 0.18"},
      {"sequence": "AACATTATGTTTATTTGTACATATAAATATATGTAA [XGTACX_site7389]", "gcPBM binding intensity (ln)": "10.8 ± 0.45"},
      {"sequence": "TCTTTTATGATATTTACACACAAACGTGAGATAGCT [CACACA_site2312]", "gcPBM binding intensity (ln)": "9.965 ± 0.092"},
      {"sequence": "CTCTACGAATTCATAGTGCAAAGAGCTAATTTTTTC [GTGCAC_site9710]", "gcPBM binding intensity (ln)": "9.805 ± 0.007"},
      {"sequence": "AAAAAACTATTATGTGCATGCACAAGTCAGGTAAAT [TGCATGCA_site791]", "gcPBM binding intensity (ln)": "10.3 ± 0.19"},
      {"sequence": "AAAAAGAAATCCAATACACACCTTCAAAATGGGTAT [CACACA_site4978]", "gcPBM binding intensity (ln)": "9.79 ± 0.2"},
      {"sequence": "TATTTATAGATATATACACACATATTTATATTTATA [CACACA_site6441]", "gcPBM binding intensity (ln)": "9.71 ± 0.014"},
      {"sequence": "CCTATTTATAAATACACACACATATATAAATAAATA [CACACA_site5629]", "gcPBM binding intensity (ln)": "10.3 ± 0.45"},
      {"sequence": "TTGTTCATATTTTTTATTGTGTTAATATTTATAAAA [GTGCAC_negctrl_site423]", "gcPBM binding intensity (ln)": "10.2 ± 0.27"},
      {"sequence": "TTAATGTAGAGAAAATGTACATTTTATTAAAACAAT [XGTACX_site6376]", "gcPBM binding intensity (ln)": "10.9 ± 0.4"},
      {"sequence": "CATTAAATATATAAATGTACAAATATATTTTTCAAA [XGTACX_site4429]", "gcPBM binding intensity (ln)": "10.9 ± 0.52"},
      {"sequence": "CCTCTTTTTATTCTCACACACGTTTATATATAAAGT [CACACA_site4992]", "gcPBM binding intensity (ln)": "10.5 ± 0.26"},
      {"sequence": "TTTTAAATATATGTGCTATTATATTAAGAGATGTAA [GTGCAC_negctrl_site560]", "gcPBM binding intensity (ln)": "9.88 ± 0.23"},
      {"sequence": "ATCTATAAATTTCCACGTACATATATATATATATAT [XGTACX_site4502]", "gcPBM binding intensity (ln)": "11.4 ± 0.93"},
      {"sequence": "TTTTTTATTTTTGCGTGTACATAATAATGAATCTTC [XGTACX_site8077]", "gcPBM binding intensity (ln)": "11.4 ± 1"},
      {"sequence": "GAAATTTCCCATATTACACACATACTATGATATATA [CACACA_site5987]", "gcPBM binding intensity (ln)": "10.07 ± 0.092"},
      {"sequence": "TTCTTTGCTTTTCAAACACACAAAAGTTATTATATT [CACACA_site521]", "gcPBM binding intensity (ln)": "10.04 ± 0.064"},
      {"sequence": "AAAAGAAAATAAGAAACACACAAAAATATATAAAAA [CACACA_site3697]", "gcPBM binding intensity (ln)": "9.9 ± 0.099"},
      {"sequence": "TTATAAATGTATTTATGTACATATAAATATATATAA [XGTACX_site2970]", "gcPBM binding intensity (ln)": "11.2 ± 0.66"},
      {"sequence": "TTTTTTTTTTTTTTGGTGCACATAGAAATTCTAAAA [GTGCAC_site9809]", "gcPBM binding intensity (ln)": "10.5 ± 0.69"},
      {"sequence": "ATATAAATCAAAAACGCACACATAAATATTTATATA [CACACA_site2442]", "gcPBM binding intensity (ln)": "10.1 ± 0.21"},
      {"sequence": "ATAAAAGAATAAATAAAACACATATATATATATATA [XGTACX_negctrl_site31]", "gcPBM binding intensity (ln)": "10.1 ± 0.61"},
      {"sequence": "AAAAGATGCGCATACACACAGATGAATAACAAAAAA [CACACA_site6865]", "gcPBM binding intensity (ln)": 10.1},
      {"sequence": "TACGTATGCCTGTGATGTACATATATATATACATAC [XGTACX_site4728]", "gcPBM binding intensity (ln)": "11.3 ± 0.61"},
      {"sequence": "TTTCGGTTTTTTTTTATTTTTTTTTTTTTATTATTT [CACACA_negctrl_site335]", "gcPBM binding intensity (ln)": "9.75 ± 0.042"},
      {"sequence": "GCACATTTTTTTATCACACATATAATTACAATATAA [CACACA_site5585]", "gcPBM binding intensity (ln)": "10.2 ± 0.23"},
      {"sequence": "ATATAGGTAAAAAGTATACACACGTTGACACATTCT [CACACA_site1199]", "gcPBM binding intensity (ln)": "10.19 ± 0.021"},
      {"sequence": "AATATGATATATATATGTACATATATATAATATAAT [XGTACX_site3072]", "gcPBM binding intensity (ln)": "11.1 ± 0.64"},
      {"sequence": "AAAGTATAATAATACACACACTTTAAAAGTTAAATG [CACACA_site7550]", "gcPBM binding intensity (ln)": "10.08 ± 0.071"},
      {"sequence": "ATAATATAATTTTGCAGTACCCAAAAAACAAAATAA [XGTACX_site4827]", "gcPBM binding intensity (ln)": "11.2 ± 0.76"},
      {"sequence": "TTATTGAAAAAAGAACAAAAAAAAAAAGAAAAATTA [XGTACX_negctrl_site438]", "gcPBM binding intensity (ln)": "9.72 ± 0.057"},
      {"sequence": "TATAAACATTATAAATGTACAAATATATATATATAT [XGTACX_site3218]", "gcPBM binding intensity (ln)": "10.5 ± 0.3"},
      {"sequence": "GAAAGAATAAAATTTACACACATATATATATACATA [CACACA_site2250]", "gcPBM binding intensity (ln)": "9.745 ± 0.035"},
      {"sequence": "ATATATATATATATATGTACTTATTTGAATACTAAA [XGTACX_site2330]", "gcPBM binding intensity (ln)": "11.2 ± 0.79"},
      {"sequence": "AAAATAAGAAATAGATGTACTTATAAATAAATACAA [XGTACX_site4441]", "gcPBM binding intensity (ln)": "11.4 ± 0.65"},
      {"sequence": "GGCATAAATATATGCACACACAAAAAAAAAAAAAAA [CACACA_site59]", "gcPBM binding intensity (ln)": "10 ± 0.65"},
      {"sequence": "TTTTTTTTTTTAAAAAGTACACAATTAATTAATATA [XGTACX_site8494]", "gcPBM binding intensity (ln)": "11.5 ± 1.1"},
      {"sequence": "ATATTGTTTTATATAGAACACACATAAAAATATATA [CACACA_site8314]", "gcPBM binding intensity (ln)": "10.1 ± 0.25"},
      {"sequence": "GTTAATAAAAATATATGTACATAATTATTATGAAAA [XGTACX_site3030]", "gcPBM binding intensity (ln)": "11.4 ± 0.78"},
      {"sequence": "TATATATTTTTTAAACCACACACAATATAGAGTATA [CACACA_site8106]", "gcPBM binding intensity (ln)": "10.3 ± 0.17"},
      {"sequence": "AATATTATTTAGGAGCGTACGTTTTATTTACATATT [XGTACX_site5188]", "gcPBM binding intensity (ln)": "11.2 ± 0.62"},
      {"sequence": "TCATTATATCATGGTAGTACTCATTAATAATACGTA [XGTACX_site8701]", "gcPBM binding intensity (ln)": "11.5 ± 0.86"},
      {"sequence": "AACCACATACATATAACACACATATACAATATATAT [CACACA_site8607]", "gcPBM binding intensity (ln)": "10.1 ± 0.19"},
      {"sequence": "GGACATTTTTATAAGGTGCACGGTTTTGATATTACT [GTGCAC_site9892]", "gcPBM binding intensity (ln)": "10.6 ± 0.28"},
      {"sequence": "ATAATGATATATAGTACACACAAAAATGGAAGTAAA [CACACA_site7541]", "gcPBM binding intensity (ln)": "11.2 ± 0.78"},
      {"sequence": "TCATTCATAAAAATAACACACAAAAAAAAAAAAAAA [CACACA_site1800]", "gcPBM binding intensity (ln)": "9.7 ± 0.47"},
      {"sequence": "AAATTATATTATTGAACACACGTTTGGTAATGTTTT [CACACA_site5469]", "gcPBM binding intensity (ln)": "10.04 ± 0.085"},
      {"sequence": "AAATATAAGAAAAAGGTGCTTTTTTTTTTTTTTTTT [GTGCAC_site9700]", "gcPBM binding intensity (ln)": "10.5 ± 0.19"},
      {"sequence": "AGGGAAAAAAAAAAAGTGCATTTGTATTAAATGAAT", "gcPBM binding intensity (ln)": "9.985 ± 0.021"},
      {"sequence": "GTAAACAAAATATTTTGTACATATTTTATATTATTT [XGTACX_site7837]", "gcPBM binding intensity (ln)": "10.9 ± 0.54"},
      {"sequence": "TGACTATGTATATTTAGTACATAAAATCAATAATAT [XGTACX_site4082]", "gcPBM binding intensity (ln)": "10.9 ± 0.71"},
      {"sequence": "AAGGGTTGCCTGTGTAGTACATATATATATATATAT [XGTACX_site8555]", "gcPBM binding intensity (ln)": "11.5 ± 0.91"},
      {"sequence": "CTCTTGTTTCCATATAGTACGTAATAATATATACAA [XGTACX_site2428]", "gcPBM binding intensity (ln)": "11.4 ± 0.75"},
      {"sequence": "TTTTCAATTAAAAAAAAATTATATTTTATTATTACA [CACACA_negctrl_site142]", "gcPBM binding intensity (ln)": "9.41 ± 0.33"},
      {"sequence": "AAGATGGTAAAGAATTGTACGCGCATATATATATTT [XGTACX_site3904]", "gcPBM binding intensity (ln)": "11.6 ± 0.83"}
    ]}
  ]
}
